Source: a collection of fitness landscapes (doi:10.1016/j.celrep.2020.107928)
In all, about 81,000 sequences were measured (“one-hybrid fitness for binding NBS DNA”: median about -0.1, highest 2% from about 0.36 on). The list shows a part of the results.

B1: Caulobacter ParB omega fusion; a variant is named by its letters at X, in order, B8GW30 (parent)
chain: MESVVVGEPGMSEGRRGLGRGLSALLGEVDAAPAQAPGEQLGGSREAPIEILQRNPDQPRRTFREEDLEDLSNSIREKGVLQPILVRPSPDTAGEYQIVAGERAWRAAQRAGLKTVPIMVRELDDLAVLEIGIIENVQRADLNVLEEALSYKVLMEKFERTQENIAQTIGKSXSHVANXMRLLXLPDEVQSYLVSGELTAXHARAIAAAADPVALAKQIIEGGLSVRETEALARKAPNLSAGKSKGGRPPRVKDTDTQALESDLSSVLGLDVSIDHRGSTGTLTITYATLEQLDDLCNRLTRGI

Variants of: B1
Experiment: one-hybrid fitness for binding NBS DNA (the Noc-binding site; scaled: cognate 1, non-cognate 0); higher = stronger binding
Conditions: with NBS DNA site
Method in brief: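 Fitness here means the log change in variant-to-wild-type read ratio between plasmids sequenced before and after selection. That scale was set so cognate equals 1 and non-cognate equals 0. The selection was a bacterial one-hybrid screen of Caulobacter ParB libraries, four specificity codons randomised, in E. coli USO carrying a HIS3 reporter with the site 19 bp from the promoter, grown 48 hours at 37°C on M9-minus-histidine with 0.1 mM IPTG and 5 mM 3-AT.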

Row | Variant | one-hybrid fitness for binding NBS DNA
1 | NNYM | ≤ 0.2
2 | GVWR | ≤ 0.2
3 | GPSY | ≤ 0.2
4 | SCKG | ≤ 0.2
5 | GHPV | ≤ 0.2
6 | QISL | ≤ 0.2
7 | ILDG | ≤ 0.2
8 | QGSL | ≤ 0.2
9 | NNDW | ≤ 0.2
10 | EYQL | ≤ 0.2
11 | RNCM | ≤ 0.2
12 | RYKN | 0.218
13 | QNTE | ≤ 0.2
14 | ISVL | ≤ 0.2
15 | PKTY | ≤ 0.2
16 | TQHR | ≤ 0.2
17 | CTVR | ≤ 0.2
18 | GRAL | ≤ 0.2
19 | PWFN | ≤ 0.2
20 | NEHL | ≤ 0.2
21 | CHYV | ≤ 0.2
22 | HVDW | ≤ 0.2
23 | CYSG | ≤ 0.2
24 | DAPD | ≤ 0.2

Row | Variant | one-hybrid fitness for binding NBS DNA
25 | TMVT | ≤ 0.2
26 | HCAC | ≤ 0.2
27 | QQIR | 0.435
28 | DDPL | ≤ 0.2
29 | NDGK | ≤ 0.2
30 | TYVG | ≤ 0.2
31 | YQVL | ≤ 0.2
32 | DMNC | ≤ 0.2
33 | HLTH | ≤ 0.2
34 | HPQH | ≤ 0.2
35 | QGNM | ≤ 0.2
36 | IQLF | ≤ 0.2
37 | QYVT | 0.363
38 | LNHV | ≤ 0.2
39 | DLDS | ≤ 0.2
40 | QPFL | ≤ 0.2
41 | ASNG | ≤ 0.2
42 | NSHF | ≤ 0.2
43 | IAPC | ≤ 0.2
44 | REGY | ≤ 0.2
45 | QHNE | ≤ 0.2
46 | YELS | ≤ 0.2
47 | TNPI | ≤ 0.2
48 | YHFG | ≤ 0.2

Row | Variant | one-hybrid fitness for binding NBS DNA
49 | RWEF | ≤ 0.2
50 | DESG | ≤ 0.2
51 | HLSK | ≤ 0.2
52 | VGYT | ≤ 0.2
53 | ERSG | ≤ 0.2
54 | TVEE | ≤ 0.2
55 | QQLH | 0.22
56 | ASLW | ≤ 0.2
57 | LTST | ≤ 0.2
58 | DVNC | ≤ 0.2
59 | RFKA | ≤ 0.2
60 | NPMG | ≤ 0.2
61 | ITTM | ≤ 0.2
62 | KYLA | ≤ 0.2
63 | KFMT | ≤ 0.2
64 | IPHA | ≤ 0.2
65 | FMPE | ≤ 0.2
66 | DYWM | ≤ 0.2
67 | QSST | 0.424
68 | RMSI | ≤ 0.2
69 | EGAF | ≤ 0.2
70 | LIDT | ≤ 0.2
71 | ITRP | ≤ 0.2
72 | KAAS | ≤ 0.2

Row | Variant | one-hybrid fitness for binding NBS DNA
73 | LFFT | ≤ 0.2
74 | RTDD | ≤ 0.2
75 | QQVI | ≤ 0.2
76 | QKTM | ≤ 0.2
77 | EWFG | ≤ 0.2
78 | LQPR | ≤ 0.2
79 | MSAL | ≤ 0.2
80 | PVWA | ≤ 0.2
81 | RLSI | ≤ 0.2
82 | HYAC | ≤ 0.2
83 | QKQP | ≤ 0.2
84 | EGPT | ≤ 0.2
85 | RFNE | ≤ 0.2
86 | RSMN | ≤ 0.2
87 | SDQR | ≤ 0.2
88 | HNSF | ≤ 0.2
89 | MRWR | ≤ 0.2
90 | LSLY | ≤ 0.2
91 | PTII | ≤ 0.2
92 | VWEG | ≤ 0.2
93 | SGAG | ≤ 0.2
94 | PDGR | ≤ 0.2
95 | DMSM | ≤ 0.2
96 | PFQM | ≤ 0.2

Row | Variant | one-hybrid fitness for binding NBS DNA
97 | PHTS | ≤ 0.2
98 | QTFA | 0.301
99 | DRYR | ≤ 0.2
100 | QVLI | ≤ 0.2
101 | QVVG | ≤ 0.2
102 | SPAM | ≤ 0.2
103 | RACT | 0.334
104 | YRET | ≤ 0.2
105 | AKFC | ≤ 0.2
106 | VRTT | ≤ 0.2
107 | NPFY | ≤ 0.2
108 | CDNR | ≤ 0.2
109 | PWVG | ≤ 0.2
110 | EPSS | ≤ 0.2
111 | WESG | ≤ 0.2
112 | WHLD | ≤ 0.2
113 | MLPF | ≤ 0.2
114 | TQTF | ≤ 0.2
115 | QTTS | 0.528
116 | MSMS | ≤ 0.2
117 | QLSM | ≤ 0.2
118 | AQRI | ≤ 0.2
119 | HDCT | ≤ 0.2
120 | RVIK | ≤ 0.2

Row | Variant | one-hybrid fitness for binding NBS DNA
121 | GGEC | ≤ 0.2
122 | EFNG | ≤ 0.2
123 | SAHR | ≤ 0.2
124 | FMSQ | ≤ 0.2
125 | CHPS | ≤ 0.2
126 | LVWN | ≤ 0.2
127 | HPQW | ≤ 0.2
128 | FWVS | ≤ 0.2
129 | IFEI | ≤ 0.2
130 | GMSG | ≤ 0.2
131 | HDPY | ≤ 0.2
132 | SFQT | 0.203
133 | IRCI | ≤ 0.2
134 | HIPM | ≤ 0.2
135 | TKFS | ≤ 0.2
136 | HPVR | ≤ 0.2
137 | MHLW | ≤ 0.2
138 | NAPL | ≤ 0.2
139 | NRWY | ≤ 0.2
140 | PIPA | ≤ 0.2
141 | IATT | ≤ 0.2
142 | RKGD | ≤ 0.2
143 | ELSW | ≤ 0.2
144 | RYST | 0.452

Row | Variant | one-hybrid fitness for binding NBS DNA
145 | LRYH | ≤ 0.2
146 | YAMY | ≤ 0.2
147 | GMSK | ≤ 0.2
148 | YYKA | ≤ 0.2
149 | RNHA | ≤ 0.2
150 | TTRE | ≤ 0.2
151 | NRLR | ≤ 0.2
152 | WHTW | ≤ 0.2
153 | VINT | ≤ 0.2
154 | YDMG | ≤ 0.2
155 | SVNR | ≤ 0.2
156 | TINR | ≤ 0.2
157 | SAID | ≤ 0.2
158 | PWHV | ≤ 0.2
159 | LWGS | ≤ 0.2
160 | MVDG | ≤ 0.2
161 | RRND | ≤ 0.2
162 | RSKD | ≤ 0.2
163 | RVAA | ≤ 0.2
164 | LLIR | ≤ 0.2
165 | LSRT | ≤ 0.2
166 | TSNC | ≤ 0.2
167 | DMNV | ≤ 0.2
168 | EFTR | 0.24

Row | Variant | one-hybrid fitness for binding NBS DNA
169 | LQYA | ≤ 0.2
170 | TCMD | ≤ 0.2
171 | LYSG | ≤ 0.2
172 | RENT | ≤ 0.2
173 | KAWR | ≤ 0.2
174 | TLWW | ≤ 0.2
175 | RVNQ | ≤ 0.2
176 | LLCG | ≤ 0.2
177 | SESM | ≤ 0.2
178 | GLCR | ≤ 0.2
179 | CWHS | ≤ 0.2
180 | LALC | ≤ 0.2
181 | FGDG | ≤ 0.2
182 | YKCE | ≤ 0.2
183 | RLIH | ≤ 0.2
184 | QTGT | 0.64
185 | KFVR | ≤ 0.2
186 | AQSM | ≤ 0.2
187 | QYMV | ≤ 0.2
188 | VNRP | ≤ 0.2
189 | ETAI | ≤ 0.2
190 | TNAN | ≤ 0.2
191 | SNDD | ≤ 0.2
192 | QSNE | ≤ 0.2

Row | Variant | one-hybrid fitness for binding NBS DNA
193 | MTQH | ≤ 0.2
194 | AHKT | ≤ 0.2
195 | GMCA | ≤ 0.2
196 | YQDG | ≤ 0.2
197 | VGDA | ≤ 0.2
198 | FLKC | ≤ 0.2
199 | NMKR | 0.201
200 | NHLG | ≤ 0.2
201 | NYAM | ≤ 0.2
202 | ASFG | ≤ 0.2
203 | KFFY | ≤ 0.2
204 | CKLR | ≤ 0.2
205 | PSFP | ≤ 0.2
206 | ALLH | ≤ 0.2
207 | QQWF | ≤ 0.2
208 | TRPW | ≤ 0.2
209 | YESG | ≤ 0.2
210 | VTIT | ≤ 0.2
211 | RKVF | ≤ 0.2
212 | PCCR | ≤ 0.2
213 | ADTF | ≤ 0.2
214 | AIRF | ≤ 0.2
215 | DAWR | ≤ 0.2
216 | ARMY | ≤ 0.2

Row | Variant | one-hybrid fitness for binding NBS DNA
217 | NLEG | ≤ 0.2
218 | MIVV | ≤ 0.2
219 | QAHI | ≤ 0.2
220 | WRTR | ≤ 0.2
221 | SIST | ≤ 0.2
222 | QYCI | ≤ 0.2
223 | YYRV | ≤ 0.2
224 | SRTD | ≤ 0.2
225 | KKPT | ≤ 0.2
226 | QQRS | 0.714
227 | PIFL | ≤ 0.2
228 | KRRM | 0.248
229 | SKDC | ≤ 0.2
230 | RLHK | ≤ 0.2
231 | YVHR | ≤ 0.2
232 | GGNT | ≤ 0.2
233 | CTEL | ≤ 0.2
234 | QYDA | ≤ 0.2
235 | PNPE | ≤ 0.2
236 | KEPC | ≤ 0.2
237 | TSTT | ≤ 0.2
238 | NSWS | ≤ 0.2
239 | KTNN | ≤ 0.2
240 | GKKS | ≤ 0.2

Row | Variant | one-hybrid fitness for binding NBS DNA
241 | CFNC | ≤ 0.2
242 | HSTE | ≤ 0.2
243 | PLMG | ≤ 0.2
244 | SMKC | ≤ 0.2
245 | RWKE | ≤ 0.2
246 | PLAK | ≤ 0.2
247 | PVFM | ≤ 0.2
248 | LVSR | ≤ 0.2
249 | HMDL | ≤ 0.2
250 | RLGP | ≤ 0.2
251 | RMIN | ≤ 0.2
252 | AQDA | ≤ 0.2
253 | TIPT | ≤ 0.2
254 | NYRR | ≤ 0.2
255 | IIIR | ≤ 0.2
256 | PGHS | ≤ 0.2
257 | HLFC | ≤ 0.2
258 | NHNF | ≤ 0.2
259 | YLNK | ≤ 0.2
260 | RGSS | ≤ 0.2
261 | MKVM | ≤ 0.2
262 | GYCL | ≤ 0.2
263 | AQRA | ≤ 0.2
264 | QMQH | ≤ 0.2

Row | Variant | one-hybrid fitness for binding NBS DNA
265 | NGVK | ≤ 0.2
266 | PKFV | ≤ 0.2
267 | ICAV | ≤ 0.2
268 | MYQR | ≤ 0.2
269 | RNHC | ≤ 0.2
270 | QKAR | 0.606
271 | MANY | ≤ 0.2
272 | QAWH | ≤ 0.2
273 | YPSM | ≤ 0.2
274 | MRDR | ≤ 0.2
275 | RNGK | ≤ 0.2
276 | KNLN | ≤ 0.2
277 | VNIM | ≤ 0.2
278 | GARH | ≤ 0.2
279 | DRRM | ≤ 0.2
280 | RSRH | 0.335
281 | DVAL | ≤ 0.2
282 | LSVP | ≤ 0.2
283 | QPGN | ≤ 0.2
284 | CHNI | ≤ 0.2
285 | CTRA | ≤ 0.2
286 | RFQF | ≤ 0.2
287 | QPGI | ≤ 0.2
288 | RGHP | ≤ 0.2

Row | Variant | one-hybrid fitness for binding NBS DNA
289 | KITS | ≤ 0.2
290 | SSSC | ≤ 0.2
291 | EQFV | ≤ 0.2
292 | TVDL | ≤ 0.2
293 | CRLE | ≤ 0.2
294 | LTMA | ≤ 0.2
295 | RMYL | ≤ 0.2
296 | THKG | ≤ 0.2
297 | YTPT | ≤ 0.2
298 | HPDG | ≤ 0.2
299 | QCFP | ≤ 0.2
300 | QPKT | 0.201
301 | TGKL | ≤ 0.2
302 | HKKF | ≤ 0.2
303 | PIIR | ≤ 0.2
304 | QMVI | ≤ 0.2
305 | PRTH | ≤ 0.2
306 | HKKG | ≤ 0.2
